From the supplement of paper PMC9135407 come the findings set out here.

Values joined by “and” are separate entries in the source; they are usually repeats but may differ in a detail not shown here. Identical values can stand only once. Counter-ions that a name gives are not always drawn. Hit rate of the full screen: of about 5,800 compounds, about 620 (11%) showed activity.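 Rule for the calls: active = score above a cut-off or among the top three wells of a plate; in these data no inactive exceeds 0.85.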 This is a selection; strong and weak results do not stand in their true shares.

This assay relates to primary human hepatic stellate cells (donor 1). Nature of the assay: scaled lipid accumulation score (0 = DMSO-like, 1 = nortriptyline-like); higher = stronger HSC inactivation (lipid re-accumulation), active = hit call of the paper. Particulars: 48 h.
The mark [1] stands for this setting: library stock concentration: 10 mM.
[2] abbreviates: library stock concentration: 3.33 mM.
Where [3] appears, read: library stock concentration: 1 mM.

As for `CCN(CC)CCOc1ccc(C(=C(Cl)c2ccccc2)c2ccccc2)cc1.O=C(O)CC(O)(CC(=O)O)C(=O)O` [Clomifene citrate], under setting [1], the “scaled lipid accumulation score” value was active: 1.12.
Still for that read-out and setting: the result for `C[Se]CC[C@H](N)C(=O)O` reads inactive: ≤ 0.
Regarding `O=C1NCCN1c1ncc([N+](=O)[O-])s1` [Niridazole], the “scaled lipid accumulation score” value was inactive: ≤ 0.
On to `CCCCCN(C)CCC(O)(P(=O)(O)O)P(=O)(O)O` [Ibandronate sodium], for which the “scaled lipid accumulation score” value under setting [1] was inactive: ≤ 0.
On to `CCCCCN(C)CCC(O)(P(=O)(O)O)P(=O)(O)O` [Ibandronate], for which the “scaled lipid accumulation score” value (library stock concentration: 6.3 mM) is inactive: ≤ 0.
As to `CC(C)(C)C(=O)OCOC(=O)[C@@H]1N2C(=O)[C@@H](/N=C/N3CCCCCC3)[C@H]2SC1(C)C` [Pivmecillinam hydrochloride], the “scaled lipid accumulation score” value is inactive: ≤ 0.
For `O=C(c1ccc(F)cc1)C1CCN(CCCCc2ccccc2)CC1` [4-(4-Fluorobenzoyl)-1-(4-phenylbutyl)-piperidine oxalate], the “scaled lipid accumulation score” value under setting [1] is inactive: 0.378.
`CC(C)OC(=O)C(C(=O)OC(C)C)=C1SC=CS1` [Malotilate]: the “scaled lipid accumulation score” value was inactive: ≤ 0 under setting [2] and inactive: ≤ 0 under setting [1].
On to `Cc1ncc([N+](=O)[O-])n1C`, for which, under setting [1], the “scaled lipid accumulation score” value is inactive: ≤ 0.
Consider `CNc1ncnc2c1ncn2[C@@H]1O[C@H](CO)[C@@H](O)[C@H]1O` [N6-Methyladenosine], for which the “scaled lipid accumulation score” value under setting [1] is inactive: ≤ -0.021.
On to `CNc1ncnc2c1ncn2[C@@H]1O[C@H](CO)[C@@H](O)[C@H]1O` [N6-methyladenosine], for which the “scaled lipid accumulation score” value is inactive: ≤ 0.
As for `CNc1ncnc2c1ncn2[C@@H]1O[C@H](CO)[C@@H](O)[C@H]1O` [N6-methyladenosine (m6A)], the “scaled lipid accumulation score” value runs as follows: under setting [2], inactive: ≤ 0; under setting [1], inactive: ≤ -0.001.
On to `OCC(O)CN1CCN(c2ccccc2)CC1` (racemic) [Dropropizine (R,S)], for which the “scaled lipid accumulation score” value is inactive: ≤ 0.
Turning to `N[C@@H](CC(=O)O)C(=O)O` [L-Aspartic acid], the “scaled lipid accumulation score” value under setting [1] is inactive: ≤ 0.
`CCCCN1C[C@H](O)[C@@H](O)[C@H](O)[C@H]1CO` [Miglustat]: the “scaled lipid accumulation score” value (library stock concentration: 9.1 mM) is inactive: ≤ 0.
Regarding `C[C@@H](O)[C@H]1C(=O)N2C(C(=O)O)=C(SCCNC=N)C[C@H]12` [Imipenem monohydrate], under setting [1], the “scaled lipid accumulation score” value was inactive: 0.097.
In the case of `C[C@@H](O)[C@H]1C(=O)N2C(C(=O)O)=C(SCCNC=N)C[C@H]12` [Imipenem], the “scaled lipid accumulation score” value is inactive: ≤ 0. The “scaled lipid accumulation score” value (library stock concentration: 6.7 mM) is inactive: ≤ 0.
With `c1ccc2c(c1)CCCC2C1=NCCN1` (stereo unspecified) [Tetrahydrozoline hydrochloride], the “scaled lipid accumulation score” value was inactive: ≤ 0. Also, the “scaled lipid accumulation score” value under setting [1] was inactive: ≤ 0.
As to `c1ccc2c(c1)CCCC2C1=NCCN1` (stereo unspecified) [Tetrahydrozoline HCl], the “scaled lipid accumulation score” value reads like this: under setting [2], inactive: ≤ 0; under setting [1], inactive: ≤ -0.001.
Consider `c1ccc2c(c1)CCCC2C1=NCCN1` (stereo unspecified) [Tyzine], for which the “scaled lipid accumulation score” value under setting [1] is inactive: ≤ 0.
The same measure, in the same setting: the result for `O=C(O)Cn1c(C(=O)Nc2nc(-c3ccccc3Cl)cs2)cc2ccccc21` reads inactive: ≤ -0.001.
In the case of `O=C(CN=C(c1ccccc1)c1ccccc1)OCc1ccccc1` [N-(diphenylmethylene) Glycine benzyl ester], the “scaled lipid accumulation score” value under setting [3] is inactive: 0.004.
For the compound `Cc1cccc(C)c1NC(=O)c1ccccc1C(=O)O`, the “scaled lipid accumulation score” value under setting [1] is inactive: ≤ 0.
On to `O=C(COc1cccc2c(=O)[nH]ccc12)c1ccccc1`, for which the “scaled lipid accumulation score” value reads like this: under setting [2], inactive: ≤ -0.009; under setting [1], inactive: 0.218 and inactive: 0.022.
As for `CCNC(=O)[C@H]1O[C@@H](n2cnc3c(N)nc(NCCc4ccc(CCC(=O)O)cc4)nc32)[C@H](O)[C@@H]1O`, the “scaled lipid accumulation score” value under setting [1] is inactive: ≤ -0.07.
With `CC(C)NCC(O)COc1cccc2ccccc12` (racemic) [Propranolol hydrochloride (+/-)], the “scaled lipid accumulation score” value by setting is: (library stock concentration: 6.8 mM) inactive: 0.363; under setting [1], inactive: 0.457.
For the compound `C[C@](N)(Cc1ccc(O)cc1)C(=O)O` [L-alpha-Methyl-p-tyrosine], under setting [1], the “scaled lipid accumulation score” value is inactive: 0.166.
With `CC(=O)N[C@@H](CC(C)C)C(=O)N[C@@H](CC(C)C)C(=O)N[C@H](C=O)CCCNC(=N)N` [Leupeptin Hemisulfate], the “scaled lipid accumulation score” value reads like this: under setting [2], inactive: ≤ -0.009; under setting [1], inactive: ≤ 0.
On to `CS(=O)(=O)c1ccc([C@@H](O)[C@@H](CF)NC(=O)C(Cl)Cl)cc1` [Florfenicol], for which the “scaled lipid accumulation score” value was inactive: ≤ 0. Under setting [2], the “scaled lipid accumulation score” value was inactive: ≤ 0. In addition, the “scaled lipid accumulation score” value under setting [1] is inactive: ≤ -0.001.
In the case of `FCOC(C(F)(F)F)C(F)(F)F`, the “scaled lipid accumulation score” value under setting [1] is inactive: ≤ 0.
`CCCCCCCCCCCC(=O)c1nc2ncccc2o1`: the “scaled lipid accumulation score” value under setting [3] is inactive: ≤ 0.
Consider `CCCCCCCCCCCCCCCC(=O)O[C@H](CC(=O)O)C[N+](C)(C)C`, for which the “scaled lipid accumulation score” value under setting [1] was inactive: 0.027.
In the case of `CN1CCN(c2ccc3nc(-c4c(N)c5c(F)cccc5[nH]c4=O)[nH]c3c2)CC1`, the “scaled lipid accumulation score” value (library stock concentration: 400 uM) was active: 0.945, the “scaled lipid accumulation score” value (library stock concentration: 2 mM) is active: 1.11 and the “scaled lipid accumulation score” value under setting [1] is active: 1.08.
`C[N+](C)(C)CCOP(=O)(O)OP(=O)([O-])OC[C@H]1O[C@@H](n2ccc(N)nc2=O)[C@H](O)[C@@H]1O` [Citicoline]: the “scaled lipid accumulation score” value under setting [1] was inactive: ≤ -0.027.
Still for that read-out and setting: the result for `C[N+](C)(C)CCOP(=O)(O)OP(=O)([O-])OC[C@H]1O[C@@H](n2ccc(N)nc2=O)[C@H](O)[C@@H]1O` [Cytidine 5'-diphosphocholine sodium salt hydrate] reads inactive: ≤ -0.07.
Regarding `CCC=CCC=CCC=CCC=CCCCCC(=O)OCC` [Stearidonic Acid ethyl ester], under setting [3], the “scaled lipid accumulation score” value is inactive: ≤ 0.
For `Nc1ccc(S(=O)(=O)NC(=O)c2ccccc2)cc1` [Sulfabenzamide], the “scaled lipid accumulation score” value is inactive: ≤ 0. For the setting “library stock concentration: 7.2 mM”, the “scaled lipid accumulation score” value is inactive: ≤ 0. Moreover, the “scaled lipid accumulation score” value under setting [1] is inactive: 0.019.
On to `CC(C)c1nc(N(C)S(C)(=O)=O)nc(-c2ccc(F)cc2)c1/C=C/[C@@H](O)C[C@@H](O)CC(=O)O` [Rosuvastatin], for which the “scaled lipid accumulation score” value under setting [1] is inactive: ≤ -0.027.
`CC(C)c1nc(N(C)S(C)(=O)=O)nc(-c2ccc(F)cc2)c1/C=C/[C@@H](O)C[C@@H](O)CC(=O)O` [Rosuvastatin Calcium]: the “scaled lipid accumulation score” value runs as follows: under setting [2], inactive: ≤ 0; under setting [1], inactive: ≤ 0.
With `C=C(CC)C(=O)c1ccc(OCC(=O)O)c(Cl)c1Cl` [Ethacrynic acid], the “scaled lipid accumulation score” value was inactive: 0.135. For the same compound, the “scaled lipid accumulation score” value (library stock concentration: 6.6 mM) is inactive: ≤ -0.006 and inactive: ≤ -0.001. Further, the “scaled lipid accumulation score” value under setting [1] was inactive: ≤ 0.
`CCCCCOc1ccc(-c2ccc(-c3ccc(C(=O)N[C@H]4C[C@@H](O)[C@@H](O)NC(=O)[C@@H]5[C@@H](O)[C@@H](C)CN5C(=O)[C@H]([C@@H](C)O)NC(=O)[C@H]([C@H](O)[C@@H](O)c5ccc(O)cc5)NC(=O)[C@@H]5C[C@@H](O)CN5C(=O)[C@H]([C@@H](C)O)NC4=O)cc3)cc2)cc1`: the “scaled lipid accumulation score” value reads like this: under setting [2], inactive: ≤ 0; under setting [1], inactive: 0.462.
The corresponding values for `c1cncc(CN2CCC(n3ncc4c(N5CCOCC5)nc(-c5ccc6[nH]ccc6c5)nc43)CC2)c1` are active: 1.19 and active: 1.19.
As to `Nc1ccc2cc3ccc(N)cc3nc2c1`, the “scaled lipid accumulation score” value under setting [1] is inactive: 0.024.
For the compound `CCN=C1N[C@@H]2[C@@H](O)[C@H](O)[C@@H](CO)O[C@@H]2S1` [Thiamet G], the “scaled lipid accumulation score” value is, setting by setting: under setting [2], inactive: 0.185; under setting [1], inactive: ≤ 0.
As to `CC(C)C[C@@H]1NC(=O)[C@H](CCCN)NC(=O)[C@H](C(C)C)NC(=O)[C@H](Cc2ccc(O)cc2)N[C@@H](CCC(=O)O)C(=O)N[C@@H](CC(N)=O)C(=O)[C@@H](Cc2ccccc2)NC(=O)[C@H](Cc2ccccc2)NC(=O)[C@@H]2CCCN2C(=O)[C@@H](Cc2ccccc2)NC1=O` [Tyrothricin], the “scaled lipid accumulation score” value is, setting by setting: (library stock concentration: 1.6 mM) inactive: ≤ 0; under setting [1], inactive: ≤ 0.
For `Nc1ncnc2c1c(I)cn2[C@@H]1O[C@H](CO)[C@@H](O)[C@H]1O` [5-Iodotubercidin], the “scaled lipid accumulation score” value under setting [2] was inactive: ≤ 0.
For `COc1ccc2cc(C(C)C(=O)O)ccc2c1` (stereo not drawn) [Naproxen(+)], the “scaled lipid accumulation score” value is inactive: 0.014 (library stock concentration: 8.7 mM) and inactive: ≤ 0 under setting [1].
Take `Nc1ncnc2c1nc(Sc1ccc(Cl)cc1)n2C1OC2COP(=O)(O)O[C@@H]2[C@@H]1O` (stereo partly specified) [8-(4-Chlorophenylthio)-cAMP sodium]: the “scaled lipid accumulation score” value under setting [1] is inactive: ≤ 0.
The same measure, in the same setting: the result for `COc1cc2nccc(Oc3ccc(NC(=O)Nc4ccc(F)cc4F)c(F)c3)c2cc1OC` reads active: 1.22; that for `CC(C)c1ccc(C(=O)c2cccs2)c(SCCCCCCCCN(C)C)n1.O=C(O)C(=O)O`, active: 1.24.
Turning to `CC(C)=CCC/C(C)=C/CC/C(C)=C/CSCC(=O)O` [Farnesylthioacetic acid], the “scaled lipid accumulation score” value under setting [3] was inactive: ≤ -0.021.
On the same count and under the same terms, then `CC(C)=CCC/C(C)=C/CC/C(C)=C/CSCC(=O)O` [S-Farnesyl Thioacetic Acid], with inactive: 0.018.
Regarding `O=C(O)C1=CCCNC1` [Guvacine hydrochloride], the “scaled lipid accumulation score” value under setting [1] is inactive: 0.31 and inactive: ≤ 0.
Consider `Cc1cc(CC(=O)O)n(C)c1C(=O)c1ccc(Cl)cc1` [Zomepirac sodium salt], for which the “scaled lipid accumulation score” value was inactive: ≤ 0.
For `Cc1cc(CC(=O)O)n(C)c1C(=O)c1ccc(Cl)cc1` [Zomepirac sodium], the “scaled lipid accumulation score” value was inactive: ≤ 0 (library stock concentration: 6.9 mM) and inactive: ≤ 0 under setting [1].
For the compound `CCCCCCCCCCCCCCCC(=O)O[C@@H]1[C@@H](O)[C@@H](O)[C@@H]([C@H](NC(=O)[C@@H]2C[C@@H](CCC)CN2C)[C@H](C)Cl)O[C@@H]1SC` [Clindamycin palmitate hydrochloride], the “scaled lipid accumulation score” value (library stock concentration: 2.9 mM) was inactive: ≤ 0.
Regarding `CCCCCCCCCCCCCCCC(=O)O[C@@H]1[C@@H](O)[C@@H](O)[C@@H]([C@H](NC(=O)[C@@H]2C[C@@H](CCC)CN2C)[C@H](C)Cl)O[C@@H]1SC` [Clindamycin palmitate HCl], the “scaled lipid accumulation score” value by setting is: under setting [2], inactive: ≤ 0; under setting [1], inactive: ≤ 0.
Turning to `CCCCCCCCCCCCCCCC(=O)O[C@@H]1[C@@H](O)[C@@H](O)[C@@H]([C@H](NC(=O)[C@@H]2C[C@@H](CCC)CN2C)[C@H](C)Cl)O[C@@H]1SC` [Clindamycin palmitate], for the setting “library stock concentration: 4.7 mM”, the “scaled lipid accumulation score” value was inactive: ≤ -0.002.
Consider `COc1cc(/C=C(\C#N)C(N)=O)cc(CSc2nc3ccccc3s2)c1O`, for which the “scaled lipid accumulation score” value under setting [1] is inactive: ≤ 0.
Regarding `CCOCC(O)COc1ccc(NC(=O)CC[S+](C)C)cc1` (stereo unspecified) [Suplatast tosylate], the “scaled lipid accumulation score” value under setting [1] was inactive: ≤ -0.001.
On to `CCOCC(O)COc1ccc(NC(=O)CC[S+](C)C)cc1` (stereo unspecified) [Suplatast Tosylate], for which the “scaled lipid accumulation score” value reads like this: under setting [2], inactive: ≤ 0; under setting [1], inactive: ≤ 0.
